Measured values taken from patent US7592316B2, “Peptides as NS3-serine protease inhibitors of hepatitis C virus” (Schering Corporation, priority 2000, dated 2009).
*1 amine or outer side, *2 acyl side, *3 side chain or, on linkers, in order; H or OH if unused. Where a SMILES comes first, the peptide text is derived from it. [ ]: non-standard residue; d: D form. The star is where a group is joined. ξ: configuration not given here. Pro(trans-4-Ph) = O=C(O)[C@@H]1C[C@@H](c2ccccc2)CN1; Pro(4,4-S(CH2)3S) = O=C(O)[C@@H]1CC2(CN1)SCCCS2; ξPhg(3,5-(OMe)2) = COc1cc(OC)cc(C(N)C(=O)O)c1; ξPro(4,4-S(CH2)3S) = O=C(O)C1CC2(CN1)SCCCS2; Pro(4,4-F2) = O=C(O)[C@@H]1CC(F)(F)CN1; Benzoyl(2,6-F2) = O=C(c1c(F)cccc1F)*; Isobutyloxycarbonyl = CC(C)COC(=O)*; X4 = CCCCC(N[*:1])C(=O)C(=O)[*:2]; Hyp = O=C(O)[C@@H]1C[C@@H](O)CN1; X2 = CCCC(N[*:1])C(=O)C(=O)[*:2]; NMeChg = CN[CH](C(=O)O)C1CCCCC1; X77 = O=C(O)C(Cc1ccccc1)C(=O)*; dPhg = N[C@@H](C(=O)O)c1ccccc1; Chg = N[C@H](C(=O)O)C1CCCCC1; Phg = N[CH](C(=O)O)c1ccccc1; X42 = O=C(c1cc(F)c(F)cc1Cl)*; Troc = O=C(OCC(Cl)(Cl)Cl)*; ξChg = NC(C(=O)O)C1CCCCC1; ξPhg = NC(C(=O)O)c1ccccc1; PhAc = O=C(Cc1ccccc1)*; X56 = O=C(OC1CCOCC1)*; ξL = CC(C)CC(N)C(=O)O; ξNle = CCCCC(N)C(=O)O; ξV = CC(C)C(N)C(=O)O; Bn = c1ccc(C*)cc1; OtBu = CC(C)(C)O*; tBu = CC(C)(C)*

These compounds were tested against HCV NS3/NS4A protease (strain 1a) (Hepatitis C virus genotype 1a, UniProt P27958) (assay: biochemical). Settings: Compounds prepared by Solid Phase Synthesis, Table 3; read-out: Ki* CLASS.

SMILES | Ki
CCCC(NC(=O)[C@@H]1C[C@@H](OCc2ccccc2)CN1C(=O)C(NC(=O)c1cc(F)c(F)cc1Cl)C1CCCCC1)C(=O)C(=O)NCC(=O)N[C@@H](C(N)=O)c1ccccc1 (stereo partly shown) (X42-[ξChg][Hyp](Bn)[X2]G[dPhg]-NH2) | > 1000 nM
CCCCC(NC(=O)CNC(=O)C(=O)C(CCC)NC(=O)[C@@H]1C[C@@H](OCc2ccccc2)CN1C(=O)C(NC(=O)C(Cc1ccccc1)C(=O)O)C1CCCCC1)C(N)=O (stereo partly shown) (X77-[ξChg][Hyp](Bn)[X2]G[ξNle]-NH2) | > 1000 nM
CCCC(NC(=O)[C@@H]1C[C@@H](O)CN1C(=O)[C@@H](NC(=O)c1c(F)cccc1F)C1CCCCC1)C(=O)C(=O)NCC(=O)NC(C(N)=O)c1cc(OC)cc(OC)c1 (stereo partly shown) ({Benzoyl(2,6-F2)}-[Chg][Hyp][X2]G[ξPhg(3,5-(OMe)2)]-NH2) | 101 to 1000 nM
CCCCC(NC(=O)[C@@H]1C[C@@H](OC(C)(C)C)CN1C(=O)[C@@H](NC(=O)OCC(C)C)C1CCCCC1)C(=O)C(=O)NCC(=O)N[C@H](C(N)=O)c1ccccc1 (stereo partly shown) (Isobutyloxycarbonyl-[Chg][Hyp](tBu)[X4]G[Phg]-NH2) | 101 to 1000 nM
CCCC(NC(=O)[C@@H]1CCCN1C(=O)C(NC(=O)OCC(C)C)C(C)C)C(=O)C(=O)NCC(=O)NC(C(N)=O)c1ccccc1 (stereo partly shown) (Isobutyloxycarbonyl-[ξV]P[X2]G[ξPhg]-NH2) | > 1000 nM
CCCCC(NC(=O)CNC(=O)C(=O)C(CCC)NC(=O)[C@@H]1C[C@@H](OC(C)(C)C)CN1C(=O)C(NC(=O)OCC(C)C)C1CCCCC1)C(N)=O (stereo partly shown) (Isobutyloxycarbonyl-[ξChg][Hyp](tBu)[X2]G[ξNle]-NH2) | 101 to 1000 nM
CCCC(NC(=O)[C@@H]1C[C@@H](OCc2ccccc2)CN1C(=O)C(NC(=O)OCC(C)C)C(C)C)C(=O)C(=O)NCC(=O)NC(CC(C)C)C(N)=O (stereo partly shown) (Isobutyloxycarbonyl-[ξV][Hyp](Bn)[X2]G[ξL]-NH2) | > 1000 nM

Same assay, conditions: HCV protease continuous assay results, Table 1; read-out: Ki* Range

SMILES | Ki
CCCC(NC(=O)[C@@H]1CC2(CN1C(=O)[C@@H](NC(=O)[C@H](CC(C)C)NC(C)=O)C1CCCCC1)SCCCS2)C(=O)C(=O)NCC(=O)NC(C(=O)O)c1ccccc1 (stereo partly shown) [Example 117] (Ac-L[Chg][Pro(4,4-S(CH2)3S)][X2]G[ξPhg]-OH) | 1 to 100 nM
CCCC(NC(=O)C1CC2(CN1C(=O)C(C1CCCCC1)N(C)C(=O)Cc1ccccc1)SCCCS2)C(=O)C(=O)NCC(=O)NC(C(=O)N(C)C)c1ccccc1 (stereo not shown) [Example 215] (PhAc-[NMeChg][ξPro(4,4-S(CH2)3S)][X2]G[Phg]-NMe2; configuration not given here) | 101 to 1000 nM
CCCCC(NC(=O)[C@@H]1C[C@@H](OC(C)(C)C)CN1C(=O)[C@@H](NC(=O)OCC(C)C)C(C)(C)C)C(=O)C(=O)NCC(=O)NC[C@@H](NC(=O)OC(C)(C)C)c1ccccc1 (stereo partly shown) [Example 268] | > 1000 nM
CCCC(NC(=O)[C@@H]1C[C@@H](c2ccccc2)CN1C(=O)[C@@H](NC(=O)OCC(Cl)(Cl)Cl)C1CCCCC1)C(=O)C(=O)NCC(=O)N[C@H](C(=O)OC(C)(C)C)c1ccccc1 (stereo partly drawn) [Example 85] (Troc-[Chg][Pro(trans-4-Ph)][X2]G[Phg]-OtBu) | > 1000 nM
CCCC(NC(=O)[C@@H]1CC(F)(F)CN1C(=O)[C@@H](NC(=O)OCC(C)C)C1CCCCC1)C(=O)C(=O)NCC(=O)N[C@H](C(=O)N(C)C)c1ccccc1 (stereo partly shown) [Example 203] (Isobutyloxycarbonyl-[Chg][Pro(4,4-F2)][X2]G[Phg]-NMe2) | 101 to 1000 nM
CCCC(NC(=O)[C@@H]1CC2(CN1C(=O)[C@@H](NC(=O)[C@H](CC(C)C)NC(C)=O)C1CCCCC1)SCCCS2)C(=O)C(=O)NCC(=O)NC(C(=O)N(C)C)c1ccccc1 (stereo partly shown) [Example 119] (Ac-L[Chg][Pro(4,4-S(CH2)3S)][X2]G[ξPhg]-NMe2) | 1 to 100 nM
CCCC(NC(=O)[C@@H]1CC2(CN1C(=O)[C@@H](NC(=O)OC1CCOCC1)C1CCCCC1)SCCCS2)C(=O)C(=O)NCC(=O)NC(C(=O)N(C)C)c1ccccc1 (stereo partly shown) [Example 129] (X56-[Chg][Pro(4,4-S(CH2)3S)][X2]G[ξPhg]-NMe2) | 1 to 100 nM
C=CCOC(=O)CNC(=O)C(=O)C(CCC)NC(=O)[C@@H]1CCCN1C(=O)c1ccc(N2CCN(C(=O)[C@H](CCC(=O)OC(C)(C)C)NC(C)=O)CC2)cc1 (stereo partly shown) [Example 3] | > 1000 nM
CCCC(NC(=O)[C@@H]1C[C@@H]2CCCC[C@@H]2CN1C(=O)[C@@H](NC(=O)OC(C)(C)C)C1CCCCC1)C(=O)C(=O)NCC(=O)OCc1ccccc1 (stereo partly shown) [Example 62] | > 1000 nM

Same assay, conditions: Table 4; HCV NS3/NS4A protease, spectrophotometric assay, 30° C., pH 6.5; read-out: Ki* Range

Ki | SMILES
1 to 100 nM | CCC[C@@H](NC(=O)[C@@H]1C2[C@@H](CN1C(=O)[C@@H](NC(=O)OCC(C)C)C1(C)CCCCC1)C2(C)C)C(=O)C(=O)NCC(=O)N[C@H](C(=O)N(C)C)c1ccccc1 (stereo partly shown)
1 to 100 nM | CCCC(NC(=O)[C@@H]1CCC(C)N1C(=O)[C@@H](NC(=O)OC(C)C)C(C)(C)C)C(=O)C(=O)NCC(=O)N[C@H](C(=O)N(C)C)c1ccccc1 (stereo partly shown)

Same assay, conditions: Table 5; HCV NS3/NS4A protease, 30° C., pH 6.5; read-out: Ki* Range

Ki | SMILES
101 to 1000 nM | CNC(=O)C(=O)C(CC1CC1)NC(=O)[C@@H]1[C@@H]2[C@H](CN1C(=O)[C@@H](NC(=O)NC(C)(C)C)C1CCCCC1)C2(C)C (stereo partly shown)
1 to 100 nM | C=CCCC(NC(=O)[C@@H]1[C@@H]2[C@H](CN1C(=O)[C@@H](NC(=O)NC13CC4CC(CC(C4)C1)C3)C1CCCCC1)C2(C)C)C(=O)C(=O)NCC(=O)NCc1ccccc1 (stereo partly shown)
> 1000 nM | CCCC(NC(=O)[C@@H]1[C@@H]2[C@H](CN1C(=O)[C@@H](NC(=O)OC(C)(C)C)C1CCCCC1)C2(C)C)C(=O)C(=O)NCCS(=O)(=O)C(C)(C)C (stereo partly shown)
101 to 1000 nM | C=CCC(NC(=O)[C@@H]1[C@@H]2[C@H](CN1C(=O)[C@@H](NC(=O)OC(C)(C)C)C1CCCCC1)C2(C)C)C(=O)C(=O)NCCS(=O)(=O)C(C)(C)C (stereo partly shown)
